# Assay results taken from the supplement of paper PMC3334620.
# Whole data set: some 33,000 sequences, median “E-score (-0.5 to 0.5)” near -0.012, cut for the highest 2% near 0.29. The list shows a part of the results.
# Target: T1, Ybr033w (UniProt P38073)
# T1 sequence: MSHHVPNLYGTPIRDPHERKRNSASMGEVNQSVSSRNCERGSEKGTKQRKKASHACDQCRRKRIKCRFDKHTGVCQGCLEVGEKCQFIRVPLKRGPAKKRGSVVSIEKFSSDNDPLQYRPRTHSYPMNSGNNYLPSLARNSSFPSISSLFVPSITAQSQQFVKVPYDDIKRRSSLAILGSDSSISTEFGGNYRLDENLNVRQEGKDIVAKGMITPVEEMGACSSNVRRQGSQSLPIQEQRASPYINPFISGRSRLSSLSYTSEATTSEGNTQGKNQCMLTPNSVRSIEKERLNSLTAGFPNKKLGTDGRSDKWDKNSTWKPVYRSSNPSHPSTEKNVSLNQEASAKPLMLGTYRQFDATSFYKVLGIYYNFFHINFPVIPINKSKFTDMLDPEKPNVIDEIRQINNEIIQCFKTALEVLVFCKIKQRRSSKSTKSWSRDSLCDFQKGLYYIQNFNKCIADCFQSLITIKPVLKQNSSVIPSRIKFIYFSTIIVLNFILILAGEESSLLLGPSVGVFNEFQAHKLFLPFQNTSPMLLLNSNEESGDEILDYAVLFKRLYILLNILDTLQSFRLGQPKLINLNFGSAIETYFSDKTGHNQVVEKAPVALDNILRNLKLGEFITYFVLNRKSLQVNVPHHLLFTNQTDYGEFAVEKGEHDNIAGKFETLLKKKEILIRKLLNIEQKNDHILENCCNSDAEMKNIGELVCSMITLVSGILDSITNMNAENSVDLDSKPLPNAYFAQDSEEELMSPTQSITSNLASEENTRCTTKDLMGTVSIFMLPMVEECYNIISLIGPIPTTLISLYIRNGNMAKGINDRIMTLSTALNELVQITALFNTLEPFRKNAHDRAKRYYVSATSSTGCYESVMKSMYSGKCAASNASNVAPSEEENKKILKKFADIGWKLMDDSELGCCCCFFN
# Test: PBM E-score (8-mer binding enrichment) (E-score (-0.5 to 0.5)); higher = stronger / more preferred TF binding; most listed sequences are background and not binding sites
# Settings: protein concentration: 200 nM; construct: GST-full length
# Method: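 Universal 'all 10-mer' protein binding microarrays (Agilent AMADID 015681) probed with GST-tagged S. cerevisiae TFs (full-length or DBD) made by in vitro transcription/translation (PURExpress), about 100-200 nM. Bound TF was detected with fluorescent anti-GST. Each ungapped 8-mer (which stands for itself and its reverse complement) is scored by the PBM enrichment score (E-score), a modified Wilcoxon-Mann-Whitney statistic from -0.5 to +0.5, computed with the Universal PBM Analysis Suite. Scale: above 0.35 generally sequence-specific binding.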
row,Sequence,PBM E-score
1,ACAATTAA,0.302
2,CACCAACC,-0.105
3,ACAGTCAG,-0.0837
4,CAATCAGA,-0.0691
5,AGAAGCGA,0.0622
6,CACACTGG,-0.178
7,GAGCTAGC,0.043
8,AAGATGAG,-0.118
9,GATAGTGA,0.121
10,CCAAGGGG,-0.0712
11,CTCGCTAC,-0.0664
12,AAACCATA,0.125
13,GAGCCATA,-0.102
14,CCACGCGA,-0.116
15,AAGAGCAC,0.0266
16,AATAACGT,0.0686
17,ATAACAGG,0.00867
18,CGTTAACA,0.0218
19,CGGGAGTC,-0.238
20,AACACTTA,0.122
21,GCGAAAAC,0.0292
22,CATGGATA,-0.00626
23,GCCTCACA,-0.0218
24,CGAGTTGC,0.0346
25,ATCGACCG,-0.0751

row,Sequence,PBM E-score
1,CGAGAAGA,-0.103
2,CGAAATCA,0.191
3,AAGGCGAT,-0.0115
4,CTGGGCGA,-0.251
5,ATCGCGAA,0.0947
6,ACAAACGA,0.202
7,CCAGCCGG,-0.0863
8,TCAGTGGA,-0.188
9,TCAAAAAA,0.265
10,TGCACGAA,0.111
11,AGTGATAG,0.112
12,AAGTAACT,0.176
13,ACTGTTAT,0.157
14,ATCTGCAT,0.0612
15,CTCGGCTC,-0.118
16,CAGAAGTA,0.216
17,GCAGCCAA,0.0335
18,CATGGGGC,-0.344
19,ATGAGTGA,0.127
20,AGGTAAGC,-0.0417
21,TCAACCCA,0.0561
22,CATCATTC,-0.0159
23,TGTAGTAA,0.218
24,AATTGAAA,0.127
25,ATGTGAAG,0.221

row,Sequence,PBM E-score
1,GATAATCA,0.236
2,CACTGAGG,-0.192
3,ATTCTGAC,-0.0262
4,GCTCTAAC,-0.158
5,CCAGAATC,-0.0157
6,TCTCATCA,0.117
7,CTGTAGGC,-0.0845
8,GGCTCTGA,-0.0487
9,GTGGGGCA,-0.304
10,ATCACTTA,0.0662
11,ATTAATCG,0.166
12,CTACACTA,0.133
13,GGTGTAAA,0.0578
14,CTTACTTA,0.0259
15,CACGTTAC,-0.163
16,AACCAACC,-0.112
17,ACAGGTCG,-0.158
18,ATAGTTAC,0.179
19,AATTGTGG,-0.0479
20,GTCGTTCA,-0.126
21,CTACGGCA,-0.0788
22,GATTTAAC,0.114
23,CCGGCCAA,-0.222
24,CTGTGTTA,-0.00531
25,GGTTTCTA,0.136

row,Sequence,PBM E-score
1,ATTATCCA,0.341
2,CTACATAC,0.0802
3,CGGCGAGA,-0.206
4,ATGCCACC,-0.0873
5,ATTATAGC,0.0663
6,AATGCCAG,-0.0103
7,CCTGCATC,-0.11
8,ACGATACT,-0.0668
9,ATGCGTAG,-0.128
10,TATATGCA,0.0241
11,CGCCAGCA,-0.229
12,GTAGTAGA,0.0726
13,CAACAACA,0.168
14,GCTGGCGA,-0.195
15,CAGTGGAC,-0.154
16,CGGAGCAG,-0.197
17,ATGCCTCA,-0.195
18,AGTACGAA,0.175
19,TAGTCGAA,0.0465
20,AGATCGCA,0.0312
21,AACAGTCC,0.0135
22,GGCGGGCA,-0.237
23,ACGGACCT,-0.151
24,AGGAAGCG,-0.179
25,CCGCACCC,-0.181

row,Sequence,PBM E-score
1,CGCCGACC,-0.299
2,ACGCCCAG,-0.0654
3,CGAAGAGA,0.0929
4,AGGCATCA,-0.0852
5,TCAGATAA,0.204
6,AGAAAGCT,0.0617
7,CTGGATGA,0.0499
8,GGGACTGA,-0.33
9,CCGCTAGA,-0.228
10,AGAAGGTG,0.0838
11,GGGGTAAA,-0.0233
12,AGTAGGAG,-0.068
13,AATCTTTC,0.00719
14,AATCCGTA,0.0927
15,GCACCCTA,-0.0575
16,AATCACTG,0.092
17,GTATGAAC,0.127
18,ATACACTG,-0.117
19,GCTGGGAC,-0.3
20,ACACTCGG,0.0346
21,GACATACC,-0.082
22,CGCGAGCG,-0.249
23,ATGAGAAT,0.0749
24,ATATACCC,0.118
25,AGGTCTGG,-0.164

row,Sequence,PBM E-score
1,AAGACACT,0.192
2,AGTTCTTA,0.171
3,CGCACGAG,-0.182
4,CTATACAG,0.0247
5,CACTGCTC,0.0524
6,CGGTGCGC,-0.156
7,GGTTATAC,-0.0104
8,CACGTCTA,0.155
9,AAGTGCCA,-8e-05
10,GGATGCAA,-0.00236
11,CGAAAAAC,0.226
12,GTTGTGGA,0.0877
13,CCCGTCCC,-0.264
14,CAAGGCTC,-0.346
15,GTAACTGA,-0.102
16,CGAGCATA,0.0149
17,CAGTATGG,-0.0882
18,TCAACCGA,0.146
19,CATTACAA,0.19
20,AAACTGGA,0.0838
21,AAACATAT,0.287
22,CCACAGTC,-0.269
23,CAGCGTAA,0.0724
24,CGATCGTC,-0.157
25,AGAGACGA,-0.022

row,Sequence,PBM E-score
1,CCGTGAGC,-0.21
2,ACCGTTCC,0.0384
3,CACCAGTA,0.0586
4,GCAGTGGC,-0.138
5,ATAGGGGC,-0.276
6,GAACTGGC,0.0434
7,ACTACGCG,-0.0805
8,AGAAGAGC,-0.145
9,CCGAATCG,0.0587
10,AGACCACA,-0.134
11,AAACGTCG,-0.0262
12,AATTATGT,0.239
13,AATCGGTA,0.0669
14,AGTTGGAA,0.124
15,CATTCGCA,-0.00542
16,GAATGTGA,0.0401
17,TCACCTAA,0.0978
18,GAGAGCTC,-0.197
19,CTCCACTA,-0.0126
20,AATCGCGT,0.0913
21,AGATCCAG,-0.0318
22,ATCAGTTC,-0.0797
